Results on one molecule are retold here after patent US20120107324A1.

This experiment has as its target avb3 and avb5 integrins (on A375M cells). Briefly: cell-based or functional assay.

B1: 7B1.3A1 (antibody, IgG4, V domains shown)
VH: QVQLVESGGGVVQPGRSLRLSCAASGFTFRSYGMHWVRQAPGKGLEWVAVLWYDGSNKNYADSVKGRFTISRDNSKNTLYLQMNSLRAEDTAMYYCARDGAARRGDYYYYHGMDVWGQGTTVTVSS
VL: [left out - about 100 residues]FTFGPGTKVDIK
With B1, the Osteopontin Adhesion (% inhibition) of A375M cells at 5 ug/ml stood at 14%.
